Reference: the supplement of paper PMC3334620
In all, about 33,000 sequences were measured (“E-score (-0.5 to 0.5)”: median about -0.016, highest 2% from about 0.32 on). Some of the results follow.

The sequences below were run against T1, Stp1 (UniProt B3LFK1) (assay: PBM E-score (8-mer binding enrichment) (E-score (-0.5 to 0.5)); higher = stronger / more preferred TF binding; most listed sequences are background and not binding sites). Settings: protein concentration: 200 nM; construct: GST-full length.
T1 sequence: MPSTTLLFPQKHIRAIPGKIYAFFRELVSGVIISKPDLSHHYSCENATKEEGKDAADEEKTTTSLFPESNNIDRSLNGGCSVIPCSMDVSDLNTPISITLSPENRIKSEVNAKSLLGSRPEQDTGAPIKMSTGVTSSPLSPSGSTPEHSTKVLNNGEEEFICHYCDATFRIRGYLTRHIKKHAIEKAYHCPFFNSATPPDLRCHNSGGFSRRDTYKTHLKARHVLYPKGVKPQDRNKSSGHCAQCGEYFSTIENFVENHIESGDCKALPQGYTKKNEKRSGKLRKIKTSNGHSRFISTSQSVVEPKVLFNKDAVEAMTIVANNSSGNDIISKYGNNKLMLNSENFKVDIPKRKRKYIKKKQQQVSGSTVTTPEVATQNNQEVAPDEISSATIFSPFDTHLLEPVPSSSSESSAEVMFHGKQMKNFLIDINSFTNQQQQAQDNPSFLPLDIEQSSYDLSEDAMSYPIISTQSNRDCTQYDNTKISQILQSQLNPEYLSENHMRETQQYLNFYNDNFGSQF
In short: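 Universal all-10-mer Agilent arrays, fresh or stripped once, were converted to double-stranded form by primer extension. GST-tagged yeast transcription factors from PURExpress in vitro transcription/translation, full-length or DNA-binding domain only, were applied at about 100-200 nM and detected with fluorescent anti-GST. After masliner normalisation, the Universal PBM Analysis Suite scored each ungapped eight-base word together with its reverse complement by E-score.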

Sequence | PBM E-score
GATAGTAA | 0.102
TATGTACA | -0.0325
CACATCGC | -0.115
AAAACGTC | -0.0214
CTCGACTA | -0.233
CGATGGCC | -0.0335
AGGGGCCA | -0.282
AGTAATAG | 0.0854
TCAGATGA | 0.159
CGTAAGCC | -0.0443
GTAGGTGA | -0.121
AACTCAAA | 0.111
AAGCGACG | -0.164
TACACGGA | 0.259
GCCACAGC | 0.0628
ATCTGTAG | -0.13
GCAGTACC | 0.111
CAGGGCAC | 0.355
GGTTTCGA | 0.199
ATGGGGAG | -0.249
AAAAAGCC | 0.34
AGATTGTA | 0.112
TATCTAAA | 0.102
TACGGAGA | 0.0756
CTGTACAA | -0.0346

Sequence | PBM E-score
TGACGAAA | 0.113
GATCGCGA | 0.135
GCGCTCTA | -0.0052
TAACGCGA | -0.0792
CCGGTAAG | -0.032
CAGAAGCA | -0.0675
ATACTAAC | 0.151
ACGGCTCA | 0.403
ACGTGCTC | -0.0122
AGCGAGAA | -0.108
ACGTATCG | 0.0633
CGCAGTGC | 0.00839
TCAACAGA | -0.0515
ACCGTGCC | 0.313
CTTATTAC | 0.144
CGGAATTC | -0.0276
CACGTAGG | -0.104
CCCGGGCG | -0.104
ACGTACTG | -0.0415
TCCTGTAA | 0.0686
ACACCTGC | 0.02
ATGTATTC | -0.0744
ACAATTCA | 0.103
CTGCGAGA | -0.298
ACCTACTG | -0.128

Sequence | PBM E-score
ACTGCTGG | -0.317
CGTGCACC | -0.112
GATCACCC | -0.201
CTACCCAC | -0.286
ATACAGCG | 0.0219
CTTATAAC | 0.0678
ACGAGTAA | 0.135
GCTCAGTA | 0.0273
AAAGTTTG | 0.188
CTCGGCCA | 0.0308
ATTTATAC | 0.224
AATTGGCC | -0.249
GCCTTCCA | 0.0847
CCAAACGG | 0.153
ACCTTATA | -0.042
ACCTAGAA | -0.0377
TATCATGA | -0.114
GACCCGAC | -0.292
CGTTACTC | -0.0431
CCGGTTAA | -0.0419
CGCCCCCC | -0.266
GGGGAGAA | -0.229
CGCAGGTA | -0.0193
AGCCGGAC | 0.194
GAACAGAA | 0.1

Sequence | PBM E-score
CCTTAAGA | -0.0596
ATTCCCTC | -0.185
AAGCGGGT | -0.0561
AACCAGAG | -0.0242
CAAGTGTC | -0.128
GCACGACC | -0.189
CCAATGTA | -0.241
GTAAAGTA | 0.0702
GACGGCAC | 0.453
AGTTGGAT | -0.0612
CGACATAC | 0.232
AGTTACAC | 0.178
GCAGGATA | -0.19
CAGAATCG | 0.0469
ACCTCCTA | -0.108
ATATAGAG | 0.152
CCGGTTGC | -0.0442
ACACCGTG | 0.1
AATGGCGA | 0.167
CGTTGCAG | -0.078
CCTAATAG | -0.0134
ACATTAGA | -0.0347
GGTGTGAA | 0.0905
CACACATG | -0.118
GAGAGCGA | -0.206

Sequence | PBM E-score
CCTTTGCC | -0.0194
AATTCGTA | 0.158
GTGCTTTA | 0.0571
CCACTGCA | 0.0532
CAAGATGG | -0.115
CCTAGCTC | -0.268
TAATCGAA | 0.182
AGACCCTG | -0.304
AACATGCA | 0.0182
GGTTTTAA | 0.233
CCAACCCG | 0.0861
GGCTTGAA | -0.0921
AGGGGTTA | -0.381
GCCTTCAC | 0.125
CACTTTGG | -0.0743
TCGATAAA | 0.222
CATCTAAG | 0.04
AGACCTAC | -0.157
GCGAAAAA | 0.0896
AGACGGCC | 0.121
CAAATTGG | 0.162
AAATGGGA | -0.175
CGTGGATC | -0.0246
GATGGCGC | 0.145
GTCACACA | -0.148

Sequence | PBM E-score
ACTACTAT | 0.231
ATAGGCAT | 0.149
CTGTCAAA | 0.0845
CGCCTGGA | -0.156
GAGCTCTA | -0.101
CTTGAGCC | 0.116
AATCAACA | 0.2
ATCGGGCC | -0.199
GCGAGTCC | -0.222
CTGTCGCC | 0.132
TAATTCAA | 0.13
GACTCGAA | -0.148
ACGTAAGA | 0.022
AGTGGAAA | -0.0688
AAGCAGAC | -0.0715
TCTAGACA | 0.0537
CTGAAAGA | 0.185
CCGTGCGA | 0.415
CTTCATAC | 0.0869
ATCAACAC | 0.118
ACATCTAG | -0.0323
AACCGATA | -0.0489
TATCTCAA | 0.127
AACTCCTG | -0.0713
GATTTGCA | 0.0691

Sequence | PBM E-score
ACCATGGC | 0.192
AAAAGATA | 0.0925
CCATCCCG | -0.128
CTTATCCA | -0.0119
GCCTTCGA | 0.00438
CGAGACCG | -0.155
GGCAATAC | 0.281
ACGTCCGG | -0.184
AGCATCAA | 0.164
AGTTAGGC | 0.0668
AACGTCAT | -0.0499
CTCGCTGC | 0.127
AGTCCCGA | -0.333
AAGACCGT | -0.147
GTCCAACA | -0.0759
CTTATGGC | 0.0174
TAACTCCA | -0.136
GCGCCTCC | 0.293
CTAGCCGA | -0.0941
ACGCTGAA | -0.0121
CACTTGTC | -0.0163
GGGCTTTA | -0.0736
